Out of some 220,000 compounds screened, about 5,700 (2.6%) were called active. The inconclusive results got no clear call from the source; some entries with a clear call stand among them for comparison. The call rests on the fitted dose curve; in most records, active means well fitted inhibition curve with a large enough effect; inconclusive means small, poorly fitted or top-dose-only effect; inactive means no such curve, though single readings can be large or run the other way. Potencies of inconclusive entries are doubtful fits and often do not repeat.
Target: Lysine-specific demethylase 5B (Homo sapiens) (UniProt Q9UGL1)
Test: Primary screen for KDM5B Histone Demethylases FDH-coupled qHTS; further: nearly all actives have a fitted effect of over 70% in size; on activity change, negative = inhibition: 0% is about no effect
Conditions: FDH-coupled NADH fluorescence (FDH is formaldehyde dehydrogenase); activity change, negative = inhibition: at 57.7 µM (top of the series) unless noted
Method in brief: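 KDM5BΔAP (200 nM final) in 50 mM HEPES pH 7.5, 0.01% Tween-20 was preincubated 10 min at RT with compound over a concentration range. Substrate mix (H3K4me3 12.5 µM, α-KG 25 µM, Fe²⁺, ascorbate, NAD⁺, FDH) was added, and NADH fluorescence change over 30 min gave dose-response curves.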
Potency means the concentration at half of the fitted maximal effect; tags describe the fitted curve by direction and shape.

Chain of UniProt Q9UGL1 (Q9UGL1 whole entry, looked up): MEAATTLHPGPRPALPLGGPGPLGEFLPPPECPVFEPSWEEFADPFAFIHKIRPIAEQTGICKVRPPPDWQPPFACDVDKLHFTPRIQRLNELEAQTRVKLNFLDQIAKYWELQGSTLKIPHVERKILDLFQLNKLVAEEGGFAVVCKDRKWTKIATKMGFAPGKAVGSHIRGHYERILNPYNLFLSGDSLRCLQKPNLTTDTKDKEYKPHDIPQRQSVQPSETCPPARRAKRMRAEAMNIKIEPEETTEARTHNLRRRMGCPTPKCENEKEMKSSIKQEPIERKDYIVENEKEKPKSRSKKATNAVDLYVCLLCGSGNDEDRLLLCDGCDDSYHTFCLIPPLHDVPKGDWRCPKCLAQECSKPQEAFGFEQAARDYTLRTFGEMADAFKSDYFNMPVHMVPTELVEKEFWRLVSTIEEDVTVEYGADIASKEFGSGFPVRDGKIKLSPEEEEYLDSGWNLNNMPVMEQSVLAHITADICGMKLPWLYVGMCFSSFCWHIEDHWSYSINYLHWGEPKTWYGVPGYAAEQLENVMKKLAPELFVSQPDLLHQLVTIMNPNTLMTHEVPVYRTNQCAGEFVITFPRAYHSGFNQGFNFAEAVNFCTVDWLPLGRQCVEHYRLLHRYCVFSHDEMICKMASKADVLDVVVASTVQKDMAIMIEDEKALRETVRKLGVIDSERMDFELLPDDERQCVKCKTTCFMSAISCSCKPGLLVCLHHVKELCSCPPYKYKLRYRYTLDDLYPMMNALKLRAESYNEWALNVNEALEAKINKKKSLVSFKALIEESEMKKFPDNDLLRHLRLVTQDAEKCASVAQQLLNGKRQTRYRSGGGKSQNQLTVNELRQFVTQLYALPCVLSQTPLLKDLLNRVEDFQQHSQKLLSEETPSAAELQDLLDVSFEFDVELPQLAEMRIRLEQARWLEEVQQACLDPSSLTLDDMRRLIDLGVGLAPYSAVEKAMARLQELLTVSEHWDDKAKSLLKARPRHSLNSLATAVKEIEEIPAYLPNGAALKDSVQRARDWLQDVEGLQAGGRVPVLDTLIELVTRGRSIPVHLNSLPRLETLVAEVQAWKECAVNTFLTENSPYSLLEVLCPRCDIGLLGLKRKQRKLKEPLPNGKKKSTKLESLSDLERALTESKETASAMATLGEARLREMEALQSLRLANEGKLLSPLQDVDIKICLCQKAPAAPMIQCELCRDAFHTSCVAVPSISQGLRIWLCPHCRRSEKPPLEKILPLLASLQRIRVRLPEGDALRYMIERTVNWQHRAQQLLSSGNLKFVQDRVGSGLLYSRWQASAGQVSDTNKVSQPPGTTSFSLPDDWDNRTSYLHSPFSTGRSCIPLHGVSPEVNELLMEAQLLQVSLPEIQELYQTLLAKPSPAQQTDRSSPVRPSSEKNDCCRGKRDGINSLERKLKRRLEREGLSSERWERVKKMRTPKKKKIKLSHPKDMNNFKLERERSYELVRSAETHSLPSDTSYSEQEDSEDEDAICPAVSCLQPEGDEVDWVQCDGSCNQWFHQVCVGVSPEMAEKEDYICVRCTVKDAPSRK

Compound	Potency	activity change, negative = inhibition
CC(C)(Cc1ccc(F)cc1)NC(=O)C1CCC(=O)N(Cc2ccccn2)C1 (configuration not stated)	inactive	–
CCOC(=O)CSc1nc2ccc(NC(=O)c3ccccc3)cc2s1	inconclusive: 10 µM [inhibitor, partial curve, poor fit]	–
CC(=O)N1CCN(Cc2nc(-c3cccs3)oc2C)CC1	inactive	–
CC(=O)N(Cc1cc2cc(C)ccc2[nH]c1=O)C(C)C	inconclusive: 39.8 µM [inhibitor, single point]	–
COC1CCCN(c2ccc(C(=O)N3CCC(N4CCOCC4)CC3)cn2)C1 (configuration not stated)	inconclusive: 22.4 µM [inhibitor, single point]	–
COc1ccc(-c2nccn3cc(C(=O)O)nc23)cc1	active: 28.2 µM	–
COc1ccccc1CNc1ncnc2c1CN(C1CCCNC1)C(=O)CN2C (configuration not stated)	inconclusive: 44.7 µM [inhibitor, partial curve, poor fit]	–
CCC(=O)NCC(c1ccc(Cl)cc1)N1CCN(C)CC1 (configuration not stated)	inactive	–
Cc1cn2nc(C(=O)N3CCC(C(=O)NC4CCC(C)CC4)CC3)cc2c(=O)[nH]1 (configuration not stated)	inactive	–
CC(C)(C)c1ccc(-c2cc(C[C@H]3CNCC[C@H]3CC(=O)NCc3cccnc3)no2)cc1	inconclusive: 22.4 µM [inhibitor, partial curve, poor fit]	–
Cc1ccc2cccc(NC(=O)C(C)(C)Oc3ccc(Br)cc3)c2n1	–	inconclusive: -30.6% [inhibitor]
COc1cc(NC(=O)CN2CCN(CC(=O)Nc3ccccc3OC)CC2)cc(OC)c1	inconclusive: 14.1 µM [inhibitor, partial curve, poor fit]	–
O=C(c1ccc2c(c1)OCO2)N1CCC2(CC1)CC(c1ccccc1)=NO2	inconclusive: 7.08 µM [inhibitor, partial curve]	–
CCc1ccc2c(COC(=O)c3cc(S(=O)(=O)N(C)C)ccc3NCCO)cc(=O)oc2c1	inconclusive: 31.6 µM [inhibitor, single point]	–
COc1ccc(-c2nnc(C[C@@H]3C[C@@H](C(C)C)[C@H](CN(C)CCC#N)C=C3C)o2)cc1	inconclusive: 35.5 µM [inhibitor, single point]	–
O=C(O)Cc1sc(N/N=C\c2ccncc2)nc1-c1ccccc1	inconclusive: 28.2 µM [inhibitor, partial curve, poor fit]	–
Cc1nc(N2CCCC2)cc(N2CCN(C(=O)c3cccc(C(F)(F)F)c3)CC2)n1	inactive	–
CC(C)(C)C(=O)Nc1cccc(C(=O)OCc2cc(=O)n3nc(C4CCCCC4)sc3n2)c1	inconclusive: 25.1 µM [inhibitor, partial curve, poor fit]	–
Fc1ccc(F)c(-c2csc(NCc3ccco3)n2)c1	inconclusive: 31.6 µM [inhibitor, single point]	–
CCn1ccnc1CN1CCCC12CCN(c1ccc(C(F)(F)F)cn1)CC2	active: 20 µM	–
Cc1oc2cc(OCC(=O)N3CCC(C(N)=O)CC3)ccc2c(=O)c1Oc1ccccc1	inactive	–
Cc1cc(Cl)ccc1OC(=O)c1cc2ccccc2oc1=O	inactive	–
CCOC(=O)c1[nH]cnc1C(=O)Nc1ccc(F)cc1	inconclusive: 35.5 µM [inhibitor, single point]	–

Compound	Potency	activity change, negative = inhibition
CCCn1nc(C)cc1CN(C)c1ccc(NS(=O)(=O)CC)cc1C(=O)O	inactive	–
c1ccc2cc3n[nH]nc3cc2c1	inconclusive: 20 µM [inhibitor, partial curve, poor fit]	–
OCc1ccc(-c2nc3ccccc3s2)o1	inconclusive: 28.2 µM [inhibitor, partial curve, poor fit]	–
O=C(NCCCN1CCN(c2ccccc2F)CC1)c1nnc(Cc2ccc(Cl)cc2Cl)o1	inconclusive: 44.7 µM [inhibitor, single point]	–
CCN(C(=S)NC(=O)c1ccco1)c1cccc2ccccc12	inconclusive: 25.1 µM [inhibitor, partial curve, poor fit]	–
COc1ccc(-c2nccc3c(=O)cc(N(C)C)oc23)cn1	active: 39.8 µM	–
Nc1cc(S(=O)(=O)O)cc2cccc(S(=O)(=O)O)c12	inconclusive: 25.1 µM [inhibitor, partial curve, poor fit]	–
CC1Cc2c(nc(Cl)c(C#N)c2C#N)C([N+](=O)[O-])([N+](=O)[O-])C1 (configuration not stated)	inconclusive: 17.8 µM [inhibitor, partial curve, poor fit]	–
Cc1cn2nc(C(=O)N3CCC(NC(=O)C(C)c4ccccc4)CC3)cc2c(=O)[nH]1 (configuration not stated)	inconclusive: 25.1 µM [inhibitor, partial curve, poor fit]	–
O=c1cc(CN2CCCN(c3ccc(C(F)(F)F)cn3)CC2)nc2ccccn12	inconclusive: 39.8 µM [inhibitor, single point]	–
O=C(c1ccc[nH]c1=O)N1CCC(n2cc(-c3nc(-c4ccccc4)no3)nn2)CC1	inactive	–
Cc1ccc(C)c(-c2nc(NC(=O)c3cc(C)on3)sc2C)c1	inactive	–
CCOC(=O)C1=C(C)N(C2CCCCC2)C(=O)C1(NC(=O)C1CC1)C(F)(F)F (configuration not stated)	inactive	–
CCNc1ncc(C(=O)NC(C)c2cnn(-c3ccccc3C)c2C)cn1 (configuration not stated)	inconclusive: 28.2 µM [inhibitor, single point]	–
CN1c2cc(C(=O)N3CCN(c4ccccc4F)CC3)ccc2C(=O)N2CCCC21 (configuration not stated)	inconclusive: 28.2 µM [inhibitor, partial curve, poor fit]	–
O=C(NC1CCCC1)c1cc(C2CC2)nc2onc(C3CCCN3)c12 (configuration not stated)	inconclusive: 100 µM [inhibitor, single point]	–
CCOC(=O)c1c(-c2ccc(OC)cc2)oc2ccc(OCc3ccc(C(=O)OC)cc3)cc12	inconclusive: 2.82 µM [inhibitor, partial curve, poor fit]	–
CCc1nc2ccccc2c(C(=O)OCC(=O)NCCc2ccccc2)c1C	inactive	–
CCN1CCN(CCCNC(=O)c2ccc3c(c2)sc2nc(-c4ccc(OC)cc4)cn23)CC1	inconclusive: 31.6 µM [inhibitor, partial curve, poor fit]	–
CCOC(=O)N1CCN(Cc2nc(-c3ccc(C)s3)oc2C)CC1	inconclusive: 28.2 µM [inhibitor, partial curve, poor fit]	–
COc1cc2c(cc1OC)C(c1ccc(Cl)cc1)=NCC2	inactive	–
Cn1nnnc1-c1cccc(NC(=O)c2ccc3[nH]c4c(c3c2)CCCC4)c1	inconclusive: 35.5 µM [inhibitor, single point]	–
Cc1ccc(-n2c(=O)c3c(c4cc(C)ccc4n3C)n(CC(=O)Nc3cc(C)cc(C)c3)c2=O)cc1	inconclusive: 28.2 µM [inhibitor, single point]	–

Compound	Potency	activity change, negative = inhibition
CCOc1ccc(CC(=O)N2CCC(Cc3nc(-c4ccc(OC)cc4)no3)CC2)cc1	inactive	–
CCN(CC)C(=O)C[C@@H]1c2nc(NC(=O)c3cccs3)sc2C[C@@H]2[C@](C)(CO)[C@H](O)CC[C@]21C	inconclusive: 22.4 µM [inhibitor, single point]	–
CNc1ncncc1-c1nc(-c2ccccc2)no1	active: 28.2 µM	–
Cc1ccc(-c2onc(C)c2C)cc1S(=O)(=O)NC1CCCCC1	–	inconclusive: -30% [inhibitor]
Cc1ccc(-c2cc(N3CCCN(C(=O)CCc4ccccc4)CC3)n[nH]2)cc1C	active: 15.8 µM	–
O=c1c(S(=O)(=O)c2ccccc2)cn(Cc2ccc(F)cc2)c2cc(N3CCCCC3)c(F)cc12	inconclusive: 3.16 µM [inhibitor, full curve, poor fit]	–
COc1ccc2c(c1)CCc1c(C(=O)Nc3c(C)nn(Cc4ccc(C)cc4)c3C)noc1-2	inconclusive: 31.6 µM [inhibitor, partial curve, poor fit]	–
CC(=O)Nc1nc2c(s1)C[C@@H]1[C@](C)(CO)[C@H](O)CC[C@@]1(C)[C@@H]2CC(=O)N1CCOCC1	inconclusive: 39.8 µM [inhibitor, single point]	–
CCNC(=O)[C@@H]1C[C@H](NC(C)=O)CN1Cc1ccc(OC2CCCC2)cc1	inconclusive: 11.2 µM [inhibitor, partial curve]	–
CCC(=O)Nc1ccc(C2(C(=O)N3CCN(c4ccccc4)CC3)CCC2)cc1	inactive	–
COc1cccc(-c2cnc3[nH]cc(CC(N)=O)c3c2)c1	active: 35.5 µM	–
COc1cc(/C=C(/C#N)c2nc3ccccc3[nH]2)cc(Cl)c1OC	inconclusive: 14.1 µM [inhibitor, partial curve, poor fit]	–
COc1ccccc1-c1cc(C(=O)NCCc2ccc(Cl)cc2)c2cnn(C)c2n1	active: 79.4 µM	–
O=C(NCc1ccccn1)c1cc(-c2cccs2)nc2ccccc12	inconclusive: 20 µM [inhibitor, partial curve, poor fit]	–
COc1ccc(OC)c(-c2csc(NC(=O)Cc3ccc(F)cc3)n2)c1	–	inconclusive: -30.3% [inhibitor]
O=C(Cc1csc(-c2ccccc2)n1)N[C@H](c1ccccn1)C1CC(O)C1 (some centres not stated)	active: 25.1 µM	–
Nc1nccnc1C(=O)NCc1ccc(Oc2cccc(F)c2)nc1	inconclusive: 22.4 µM [inhibitor, partial curve, poor fit]	–
O=C(NCC1CCCO1)c1noc(-c2ccc[nH]c2=O)n1 (configuration not stated)	active: 28.2 µM	–
COc1ccc(F)cc1-c1ccc(C(=O)O)cc1	active: 100 µM	–
Cc1cccc(-n2nnnc2S(C)(=O)=O)c1	inconclusive: 17.8 µM [inhibitor, partial curve, poor fit]	–
O=C(NCc1nnc2ccccn12)C1NCCc2[nH]cnc21 (configuration not stated)	inactive	–

From PubChem BioAssay AID1347165 (National Center for Advancing Translational Sciences (NCATS), 2019)
